{"source": "PubChem BioAssay AID485294", "about": "(National Center for Advancing Translational Sciences (NCATS), 2010)", "note": "About 150 (0.041%) of roughly 370,000 compounds were called active. Inconclusive results, whose numbers are uncertain, are shown with a selection of clear calls. Calls follow the shape of the dose curve; as a rule, active = well fitted inhibition curve with a large enough effect; inconclusive = small, poorly fitted or top-dose-only effect; inactive = flat fitted curve, though single readings scatter. No potency is given beside an inconclusive call; the fits are too rough. Potency is read from the fitted curve at half-maximal effect; tags tell the direction and shape of the fitted curve.", "data": [{"biological_target": "Beta-lactamase (Escherichia coli (strain K12)) (UniProt P00811)", "sequence (P00811 whole entry, looked up)": "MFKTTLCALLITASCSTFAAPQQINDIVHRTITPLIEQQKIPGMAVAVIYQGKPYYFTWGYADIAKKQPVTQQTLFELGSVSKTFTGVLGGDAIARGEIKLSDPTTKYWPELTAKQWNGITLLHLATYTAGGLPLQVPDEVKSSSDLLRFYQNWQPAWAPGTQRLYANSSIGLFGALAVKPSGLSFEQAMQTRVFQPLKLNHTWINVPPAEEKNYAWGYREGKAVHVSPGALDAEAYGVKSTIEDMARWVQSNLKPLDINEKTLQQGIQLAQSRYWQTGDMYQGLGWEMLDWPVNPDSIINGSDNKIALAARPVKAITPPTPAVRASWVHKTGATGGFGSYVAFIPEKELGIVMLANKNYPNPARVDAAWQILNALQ", "test": "qHTS Inhibitors of AmpC Beta-Lactamase (assay with detergent); also: nearly all actives have a fitted effect of over 25% in size", "conditions": "AmpC hydrolysis of nitrocefin, absorbance 480 nm, 0.01% Triton; series mostly up to 114 µM", "how_it_was_run": "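20 mM phosphate pH 7.0 + 0.01% (detergent screen) or 0.0001% Triton X-100; 5.3 nM AmpC reagent; cpd preinc 15 min RT; nitrocefin (800 uM stock) to start; A480 q20 s × 4 min; Activity was normalised to no-enzyme and no-compound control wells.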", "values": [{"smiles": "N#Cc1ccc(COC(=O)C2CC(=O)N(CCc3ccccc3)C2)cc1", "note": "(stereo not drawn)", "Potency": "inconclusive [inhibitor, full curve, poor fit]"}, {"smiles": "CCOC(=O)c1[nH]c2ccc(OC)cc2c1NC(=O)CN1CCc2ccccc2C1", "Potency": "inconclusive [inhibitor, full curve, poor fit]"}, {"smiles": "COc1ccc(C(=O)/C=C/Nc2c(C)n(C)n(-c3ccccc3)c2=O)cc1OC", "Potency": "inconclusive [inhibitor, full curve]"}, {"smiles": "Cc1ccc2c(CN3CCN(C(=O)c4ccc(Br)cc4)CC3)cc(=O)oc2c1", "Potency": "inactive"}, {"smiles": "O=C(CN1CCC(N2CCCCC2)CC1)N1CCOCC1", "Potency": "inconclusive [inhibitor, full curve, poor fit]"}, {"smiles": "COc1ccc2c(CC(=O)NNC(=O)c3cccs3)coc2c1", "Potency": "inconclusive [inhibitor, full curve, poor fit]"}, {"smiles": "Cc1csc(CNc2ncnc3ccc(-c4cccnc4)cc23)c1", "Potency": "inactive"}, {"smiles": "Cc1ccc(Nc2cc(C)nn2-c2nc(C)cc(C)n2)cc1", "Potency": "inactive"}, {"smiles": "CCCc1cc(=O)[nH]c(SCC(=O)N(C)CC(=O)Nc2ccc(C)cc2)n1", "Potency": "inconclusive [inhibitor, full curve]"}, {"smiles": "C=CCOc1c(OC)cc(/C=N/Nc2cccc(C(=O)O)c2)c(Br)c1Br", "Potency": "inactive"}, {"smiles": "COc1ccc(S(=O)(=O)N2CCC(C(=O)NCCc3c[nH]c4ccccc34)CC2)cc1", "Potency": "inconclusive [inhibitor, partial curve]"}, {"smiles": "Cc1cccc(OCCCC(=O)Nc2ccc(Br)cc2)c1", "Potency": "inconclusive [inhibitor, full curve]"}, {"smiles": "COc1ccc(CNC(=O)Cc2ccc(NC(=O)N3CCSc4ncccc43)cc2)cc1", "Potency": "inactive"}, {"smiles": "Cc1ccc(S(=O)(=O)c2nc(-c3ccco3)oc2SCC(N)=O)cc1", "Potency": "inactive"}, {"smiles": "CCCNC(=O)Cn1cnc2sc(C(=O)N3CCN(CCC)CC3)c(C)c2c1=O", "Potency": "inconclusive [inhibitor, full curve, poor fit]"}, {"smiles": "CSCC[C@H](NC(=O)COc1ccc(Cl)cc1)c1nc2ccccc2[nH]1", "Potency": "inconclusive [inhibitor, full curve, poor fit]"}, {"smiles": "Cc1cc(-c2ccco2)n(CC(=O)NCCCc2ccccc2)n1", "Potency": "inconclusive [inhibitor, full curve]"}, {"smiles": "Cc1cc(Cl)n2c(nc3cc(F)c(F)cc32)c1C#N", "Potency": "inactive"}, {"smiles": "Cc1ccc(Cl)c(NC(=O)COC(=O)c2ccccc2C(=O)c2ccc(Cl)c([N+](=O)[O-])c2)c1Cl", "Potency": "inactive"}, {"smiles": "CC1CN(C(=O)Nc2ccccc2)c2ccccc2-[n+]2ccsc21", "note": "(stereo not drawn)", "Potency": "inconclusive [inhibitor, partial curve]"}, {"smiles": "N/C(=N\\OC(=O)COc1ccc2ccccc2c1)c1cccnc1", "Potency": "inconclusive [inhibitor, full curve, poor fit]"}, {"smiles": "COc1cccc(OCc2nnc(SC)n2C)c1", "Potency": "inactive"}, {"smiles": "CCOC(=O)C1=C(COC(=O)CCCOc2ccccc2)NC(=O)NC1C", "note": "(stereo not drawn)", "Potency": "inconclusive [inhibitor, partial curve, poor fit]"}, {"smiles": "CN1CCN(NC(=O)Nc2ccc(F)cc2)CC1", "Potency": "inconclusive [inhibitor, full curve]"}, {"smiles": "O=C(C1CCCN(S(=O)(=O)c2cnc[nH]2)C1)N1CC(=O)N(CCc2ccccc2)C(=O)C1", "note": "(stereo not drawn)", "Potency": "inconclusive [inhibitor, full curve, poor fit]"}, {"smiles": "CC/C(=N\\NC(=O)c1nnn(-c2nonc2N)c1-c1ccc2c(c1)OCO2)c1ccccc1", "Potency": "inconclusive [inhibitor, full curve, poor fit]"}, {"smiles": "CCSc1ccc([C@@H]2[C@H]3C(=O)N(C)C(=O)[C@H]3[C@]3(C(=O)OC)CCCCN23)cc1", "Potency": "inactive"}, {"smiles": "Cc1occc1C(=O)N1CCN(c2ncccn2)CC1", "Potency": "inconclusive [inhibitor, full curve]"}, {"smiles": "CCn1ncc(Br)c1C(=O)Nc1c(C)nn(Cc2c(F)c(F)c(F)c(F)c2F)c1C", "Potency": "inconclusive [inhibitor, partial curve, poor fit]"}, {"smiles": "Cc1ccc2cc(C#N)c(NCCNC(=O)C3CCC3)nc2c1C", "Potency": "inconclusive [inhibitor, full curve, poor fit]"}, {"smiles": "COc1cc(-c2nc3ccccn3c2NCC2CCCO2)ccc1O", "note": "(stereo not drawn)", "Potency": "inconclusive [inhibitor, full curve, poor fit]"}, {"smiles": "COC(=O)C1=C(NC(=O)C2CCCCC2)CCS1", "Potency": "inactive"}, {"smiles": "COc1ccc(NC(=O)CCNS(=O)(=O)c2ccc(NC(C)=O)cc2)cc1Cl", "Potency": "inconclusive [inhibitor, full curve]"}, {"smiles": "Clc1ccc(CSc2nnc(-c3ccncc3)o2)c(Cl)c1", "Potency": "inconclusive [inhibitor, partial curve, poor fit]"}, {"smiles": "Cc1cnc(-c2nnc(N(C)C(=O)C3CCCO3)s2)cn1", "note": "(stereo not drawn)", "Potency": "inconclusive [inhibitor, partial curve]"}, {"smiles": "CC(C)c1ccc(S(=O)(=O)N2CCN(C(=O)CCNC(=O)Nc3ccccc3)CC2)cc1", "Potency": "inconclusive [inhibitor, partial curve, poor fit]"}, {"smiles": "CC(C)C[C@H](NC(=O)c1nc[nH]c1C(=O)NCC(=O)OCc1ccccc1)C(=O)OCc1ccccc1", "Potency": "inconclusive [inhibitor, full curve, poor fit]"}, {"smiles": "O=C(NC1CCCC1)C1CCN(S(=O)(=O)c2ccccc2)CC1", "Potency": "inconclusive [inhibitor, single point]"}, {"smiles": "COc1cc2c(cc1OC)-c1c(OC)c(OC)cc3c1[C@H](C2)N(C)CC3", "Potency": "inconclusive [inhibitor, partial curve, poor fit]"}, {"smiles": "O=C(CSc1nnc2ccc(-c3ccccn3)nn12)Nc1ccccc1", "Potency": "inconclusive [inhibitor, full curve, poor fit]"}, {"smiles": "Cc1cc(C)nc(N/N=C/c2ccccc2)n1", "Potency": "inactive"}, {"smiles": "CCO[C@H]1c2c(ccc3ccc(=O)oc23)OC(C)(C)[C@@H]1O", "Potency": "inactive"}, {"smiles": "O=C(Nc1ccc2c(c1)OCO2)c1ccc2c(c1)OCO2", "Potency": "inactive"}]}]}
